In the RNAGym collection of RNA variant scans (doi:10.1073/pnas.2313332121):
Variants at the background level are over-represented here.

B1: TPR 5TU (parent)
chain: GGAUCUUCUCGAUCUAACAAAAAAGACAAAUCUGCCACAAAGCUUGAGAGCAUCUUCGGAUGCAGAGGCGGCAGCCUUCGGUGGCGCGAUAGCGCCAACGUUCUCAACUAUGACACGCAAAACGCGUGCUCCGUUGAAUGGAGUUUAUCAUG

Variants of: B1
Experiment: polymerase ribozyme fitness, log enrichment relative to wild type (log ratio); higher = more active; in vitro selection for triplet polymerase activity
Method in brief: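 One round of in vitro selection, in triplicate, was applied to PCR-built, transcribed mutant libraries of each subunit of a heterodimeric triplet polymerase ribozyme. The steps were annealing with a biotinylated primer, partner subunit and triplets, incubation frozen at −7 °C, gel excision of extended constructs, streptavidin-bead capture and RT-PCR. Fitness is the logarithm, base 2, of genotype enrichment over wild-type enrichment from inverse-variance-weighted replicate averages of Illumina-sequenced inputs and outputs, keeping genotypes with ≥10 input reads and ≥1 read per output.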

Variant | polymerase ribozyme fitness (log ratio)
U6A G34A C69U A73G U77A C79A C87A C96U C105A A107U G136A U139A | ≤ -4.2
U7G A20G A30U C43A G46C A47U C57A G117U | ≤ -4.2
U6C A24U A40C U56A A73U C76G C129U | ≤ -4.2
U7C C35U C85A C105U U109G G141A G143U U146A A147U U148C | ≤ -4.2
U6A U13C C51U C87A A91U U144G | ≤ -4.2
C8A A17U A26U G48U G68U C93G C132G G141C U148G | ≤ -4.2
U7G A12C U61A C93U G124C | ≤ -4.2
U6A C69A G92U A98G U111C G152C | ≤ -4.2
U7G A26C C57A U61G | ≤ -4.2
U7C G34U A106U G141C | ≤ -4.2
U7G U44A A49C U55A C96U A106G A122G G141U | ≤ -4.2
U6C G48C G65A U78A G80A G88C C95U C108U A110C | ≤ -4.2
U6C C18U A47G G70U | ≤ -4.2
U6C A23U C36U | ≤ -4.2
U7C A20G G25U A39U A73U A89C G126U U148C | ≤ -4.2
C8A A12C C32U C76U C85G C99G G117U | ≤ -4.2
U6G A21U A26G A40C A66G A107U U135A G141A | ≤ -4.2
C5U U61A U90C G94U A107G C129G U134A | ≤ -4.2
U6C A19U A20U A22U A30G C87U C105U C132U | ≤ -4.2
C8A A17G U44A A66U U77A A107C U139G | ≤ -4.2
U6G U13C A19G U45A A52U C79U C87A | ≤ -4.2
U6G A37C C51G G74C A98U C103A C118A G128U U135C U146C G152A | ≤ -4.2
U7C A47C G94C G100U U134A | ≤ -4.2
U6G A22C C36A C54U A64C C87A U148A | ≤ -4.2

Variant | polymerase ribozyme fitness (log ratio)
U7A A49G G50A U53A G58A G83C U144G | ≤ -4.2
U7C G42U C43G C72U U78A A89G | ≤ -4.2
U7G A41C C85U A98G C99U C108A G112C G136C | ≤ -4.2
U6G U13G A16G C85G G86A A142G | ≤ -4.2
U6A U9G C35G A60G C69G G88C C96A | ≤ -4.2
C5U G46U C85G | -2.05
U7A U9A A98G A121G | ≤ -4.2
U7G G34C U56A G59A | ≤ -4.2
U6G U13A C27G G94A C99G | ≤ -4.2
U6C C18U G50A C76A C96G | ≤ -4.2
U6A A24C C57G G59C C93A A97C C132G | ≤ -4.2
U6G U9G A20G G84A U130G G143U | ≤ -4.2
U6G C10G G50C U55A G58A C72G C95U C96U U144G U148A | ≤ -4.2
U6G C35U C75A A98G A121U | ≤ -4.2
U7G A23U C85U G152U | ≤ -4.2
U6G A16U A41U C87A A120C U139C A142U | ≤ -4.2
U7G U45A C57U C76A G83A G84A | ≤ -4.2
U6G A12U A28C G65U U127G | ≤ -4.2
U7C G68C C125A | ≤ -4.2
U6A U7C G83A C125A | -3.64
U7C A20U C96A C103U U109C G152U | -3.42
C8A A12U U61A C79U G84U C85G C118U A119G C129A G143C U148G | ≤ -4.2
U7G U56A G83A C87A A115G U139A | ≤ -4.2
U7A C14U C43U U78G G84C A115U A142C | ≤ -4.2

Variant | polymerase ribozyme fitness (log ratio)
U6G A24C A40G G94A G143A U144A | ≤ -4.2
U6C C10U C76G G92C | ≤ -4.2
U6C U77G C116U U130G | ≤ -4.2
U6G C14A U44G A52C C69G G71C G92U A120C G133A G141C | ≤ -4.2
U7A A12U C72A C93U C114A | ≤ -4.2
U7G C35A A47C C105G A107G | ≤ -4.2
U7G U55A G62C G92A | ≤ -4.2
U7G A40U G94U G141U | ≤ -4.2
C5U U90G | ≤ -4.2
U6G A19G U55A G67C U90G A113C G133C | ≤ -4.2
U7A A17U A19C C38U G58U G86A G92C | ≤ -4.2
U6C C51A G68A G84A | ≤ -4.2
U6G A52G C72A G124C U134G | ≤ -4.2
C5U U9A A47U C63U C123U U135G | ≤ -4.2
U6G U7C U55A U135A | -4.01
U7G A21C C32A A49C U53C C69U A142C | ≤ -4.2
U6G U55C C76A G83U A89U C95G C99U | ≤ -4.2
U6C A30C G50C G86U A115U | ≤ -4.2
U7C C10U C76A U104C | ≤ -4.2
U6G A12C C87A C114G | ≤ -4.2
U6C A41C G83A A91C G136U U146A | ≤ -4.2
U6A A26C C35A G65C C125U | ≤ -4.2
U7A A16C A29C G83U A106U C116A | ≤ -4.2
U6G U9C G11U C18G A19C G46C C76G G92U C108A C118U A119G G141U | ≤ -4.2

Variant | polymerase ribozyme fitness (log ratio)
U6A A12G G86A G88U U144A | ≤ -4.2
U7C C18U U31A G81A G84U | -3.99
U7A C63U G86C C87A A106G | ≤ -4.2
U7C U33G U61G C96G C105U | ≤ -4.2
U6A U56A G92C G100A C132G | ≤ -4.2
C5U G50C C87U C103G A121G C123U C125G | ≤ -4.2
C5U C85U | -0.24
U6G A26C A29G U44A A52U U53A A73G C93G | ≤ -4.2
U6A A22C C75U G84A A97G C108G A113C C116A U135G | ≤ -4.2
C8A A19U G136U U151G | ≤ -4.2
U6A A24C G48A C93U U127G U144A | ≤ -4.2
C8A A17G A60U U82G G83A C149A | ≤ -4.2
U6G A21C A66C G71A C103A | ≤ -4.2
U7A A47C G88A C99U | ≤ -4.2
U7C A49C G59A C87A G117C | ≤ -4.2
U6A C18U U55A C75G C87U C105G U135G | ≤ -4.2
U6A C57G C105U | 0.464
U7A G94A | -3.07
U7G A21U A24C G58A | ≤ -4.2
U7G A49G C93G A97U C108U | ≤ -4.2
U7G C76A C85G C95A A121U | ≤ -4.2
C5U U44A C87A C99U A150U | ≤ -4.2
U7G A20C A40C G48U A64U A89U G92U U101C C132A | ≤ -4.2
U6A C35A U104C | -3.88

Variant | polymerase ribozyme fitness (log ratio)
C5U U33C C57U A60U G81U C87U A91G | ≤ -4.2
U6A A52C C87A | ≤ -4.2
U7A A37C A47C C85U C93A C95U A97U C108U | ≤ -4.2
U6G A17C C57G C85A C116G A137U G143U | ≤ -4.2
U7G U13A A17U A20C G50A A122C G141U U151G | ≤ -4.2
U7A C43U A49G A110G | ≤ -4.2
U6C A16C U56A A66G U145G | ≤ -4.2
C5U G58A A91U | ≤ -4.2
U6G A26C G136A A142U U146A | ≤ -4.2
U6A A52C G81U C85G | -3.49
U7C C18G C43G G48A G58C C63U C76G | ≤ -4.2
U6G C14G G68A C75G C95U C108A | ≤ -4.2
U7G A40G C51A G84A C87U A98C A150C | ≤ -4.2
U6A A26G G58U G84A U90G | ≤ -4.2
U6G C14A A37C C43A U53A C75G C87U G100C G126A G140U | ≤ -4.2
U7A G25U C27G U44G G86A A115U U144C U148C | ≤ -4.2
U6G A121U | -0.506
U6A G68C C99G U102C C105A A106U C132G G143A | ≤ -4.2
U7G G25C C54U C69G C87G C99A G140A U146A A150G | ≤ -4.2
U7G G50C G58U C63U C76A G92A C149G | ≤ -4.2
C8A A19U A28U C51A C54A C87A | ≤ -4.2
U7A G71A G84A C99U U104G C108G | ≤ -4.2
U6C A60U G86A | -3.49
U6C U13A G25C A49C U55C G58A C95U A113U | ≤ -4.2

Variant | polymerase ribozyme fitness (log ratio)
U6G U15G A30G A49U C93G U109C | ≤ -4.2
U7C A12G C96U | -2.17
C8A A17C C87A A98C A107U U109C A150G | ≤ -4.2
U7G A52C U53A A113G A122G A138G | ≤ -4.2
U6G A39C C85A A98G G126C | -3.91
U6C G11A C51U G86A A107U U139A U146C | ≤ -4.2
C5U U13A A23G C36U G46A A97U C103U | ≤ -4.2
U6G G128U | -3.77
U7G C18G C27G A28G A37C G59U G92C U101G | ≤ -4.2
C8A A12G C85U C103G G124U C129A | ≤ -4.2
U7G C32U C54G C96U | ≤ -4.2
U7A C10U C36A U55A U56G G71A C85G | ≤ -4.2
U6G G141A | 0.243
U6C G48A A106G | -3.13
U7C C14A G71A U135C | ≤ -4.2
U7A G58C U134G | ≤ -4.2
U6G C10U A28G G67C G94A | ≤ -4.2
U6A A12C A16U A19U C75G G84C A97G A98U U102A G124U | ≤ -4.2
U6C A49C U55A U104C U146C | ≤ -4.2
U6G A60C C85A C96U G124U | -4.11
U6G U13G U44A A60G C69G C93A C118A | ≤ -4.2
U6A A16U A19G A22U A30U C87G A107C U139G | ≤ -4.2
U7A C43U A49C G80C U90G G94A C131U | ≤ -4.2
U7G A26C A47G G83U | ≤ -4.2

Variant | polymerase ribozyme fitness (log ratio)
U6A U9A A17G A29U C69A A91U | ≤ -4.2
U7C C18G G86A U148A | -4.2
U6G U31G G84U | -0.345
C8A A17G G84U G88A U109G U135G | ≤ -4.2
U6A A21U A22C A49G A73C C75G U82G C114A | ≤ -4.2
U6G C57G C85U A98U | -1.17
U6G A12U A20U C51A C96A G100U C118A U148C | ≤ -4.2
U7G C35U G42U G84A | ≤ -4.2
U7A A17C A41C U55A G58C G59A A91U A137C U145A | ≤ -4.2
U6G C75G U90A G92U | ≤ -4.2
U7A A29U C35U A66C U82G A113U | -3.86
U7C C35G U44C G84U A115G | ≤ -4.2
U7G G25C A60G C93U C123U | ≤ -4.2
U7A C14G U15G G59U U78G G84A | ≤ -4.2
U7G C87G C114G | ≤ -4.2
U7C A41U G42A U53G C76G G84A C95A C131G U135A | ≤ -4.2
U6G C10U A12U U33G A37U C95A U135A G141U U144C | ≤ -4.2
U6G G46A U56C C76G G81C A91C A106G A137U U144C U151A | ≤ -4.2
U7G C63G C76G C93G A97U C99G A106U | ≤ -4.2
U7A A20G C35U A47G G83A C96A | ≤ -4.2
U7G A29U U44A U61A G88C | ≤ -4.2
U6G U13G U33C C75U C96U | ≤ -4.2
C5U U45G G62C G65A C87A G141U U144G | ≤ -4.2
